Measured values reported in the supplement of paper PMC4967469.
A lower IC50 marks a more sensitive line; where the fit passes the top or lowest dose, that dose stands as a limit. AUC is the area under the same curve over the 256-fold range up to the top dose, as a fraction; the more sensitive the line, the further below 1. For part of these data: Where the top dose is marked as inferred, it was derived from the fitted curves, not read from the paper. For part of these data: Drugs with an entry number were screened twice under separate entries, and the two screens often disagree.

Columns and labels:
Assay in all cases: Viability of human cancer cell lines after 72 h of drug (GDSC screen)
[1] = compound: CN1CCN(c2ccc([N+](=O)[O-])c3no[n+]([O-])c23)CC1 [NSC-207895]; details: top dose 20 µM; top dose inferred
Experimental: (§1)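 Human cancer cell lines in 384-well plates, medium with 10% serum, drug for 72 h over a 256-fold dose range (nine 2-fold or five 4-fold steps up to the top dose). Adherent lines were fixed and stained with the nucleic acid dye Syto60, suspension lines read with resazurin; signal relative to control wells, capped at 0 and 100%. One two-parameter sigmoid per drug and line, fitted in a mixed model over all curves with the slope shared within a line.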

[2] = compound: COC(=O)[C@H](CCSC)NC(=O)c1ccc(NC[C@@H](N)CS)cc1-c1ccccc1 [FTI-277]; details: top dose 1.024 µM; top dose inferred
Experimental: as §1

[3] = compound: CC1(C)CNc2cc(NC(=O)c3cccnc3NCc3ccncc3)ccc21 [AMG-706]; details: top dose 2 µM; top dose inferred
Experimental: as §1

[4] = compound: CCOc1nc(NC(=O)Cc2cc(OC)ccc2OC)cc(N)c1C#N [JNK Inhibitor VIII]; details: top dose 10 µM; top dose inferred
Experimental: as §1

[5] = compound: Cc1sc2c(c1C)C(c1ccc(Cl)cc1)=N[C@@H](CC(=O)OC(C)(C)C)c1nnc(C)n1-2 [JQ1]
Experimental: as §1

[6] = compound: Cc1ccc(C(=O)N(CCCN)[C@@H](c2nc3cc(Cl)ccc3c(=O)n2Cc2ccccc2)C(C)C)cc1 [SB-715992]; details: top dose 0.128 µM; top dose inferred
Experimental: as §1

[7] = compound: CC(=O)O[C@@]12CO[C@@H]1C[C@H](O)[C@@]1(C)C(=O)[C@H](O)C3=C(C)[C@@H](OC(=O)[C@H](O)[C@@H](NC(=O)OC(C)(C)C)c4ccccc4)C[C@@](O)([C@@H](OC(=O)c4ccccc4)[C@H]21)C3(C)C [Docetaxel]; details: top dose 0.0125 µM
Experimental: as §1

[8] = compound: O=C(/C=C/c1cccc(S(=O)(=O)Nc2ccccc2)c1)NO [Belinostat]; details: top dose 20 µM; top dose inferred
Experimental: as §1

[9] = compound: c1ccc2c(CCNc3ccc(Nc4ccncc4)cc3)c[nH]c2c1 [JNJ-26854165]; details: top dose 10 µM
Experimental: as §1

[10] = compound: COCC[n+]1c2c(n(Cc3cnccn3)c1C)C(=O)c1ccccc1C2=O [YM155]; details: top dose 5.12 µM
Experimental: as §1

[11] = compound: C[C@]1(O)C[C@@H](c2nc(-c3ccc4ccc(-c5ccccc5)nc4c3)c3c(N)nccn32)C1 [OSI-906]; details: top dose 2.56 µM; top dose inferred
Experimental: as §1

[12] = top dose 1 µM, screen: GDSC drug entry 1218, top dose inferred
[13] = top dose 2.56 µM, screen: GDSC drug entry 163

Cell Line | AUC [1] | IC50 [1] | AUC [2] | IC50 [2] | AUC [3] | IC50 [3] | AUC [4] | IC50 [4] | AUC [5, 12] | IC50 [5, 12] | AUC [5, 13] | IC50 [5, 13] | AUC [6] | IC50 [6] | AUC [7] | IC50 [7] | AUC [8] | IC50 [8] | AUC [9] | IC50 [9] | AUC [10] | IC50 [10] | AUC [11] | IC50 [11]
OVKATE (ovary, adherent) | 0.831 | > 20 µM | 0.979 | > 1.02 µM | 0.979 | > 2 µM | 0.978 | > 10 µM | 0.977 | > 1 µM | 0.96 | > 2.56 µM | 0.979 | > 0.128 µM | 0.965 | > 0.0125 µM | 0.451 | 0.838 µM | 0.947 | > 10 µM | 0.193 | < 0.02 µM | – | –
RERF-LC-Sq1 (lung squamous cell carcinoma, adherent) | 0.969 | > 20 µM | – | – | 0.935 | > 2 µM | 0.954 | > 10 µM | 0.975 | > 1 µM | 0.947 | > 2.56 µM | 0.932 | > 0.128 µM | 0.841 | > 0.0125 µM | 0.572 | 2.16 µM | 0.87 | > 10 µM | 0.057 | < 0.02 µM | 0.979 | > 2.56 µM
SCC90 (head and neck, adherent) | – | – | 0.981 | > 1.02 µM | 0.974 | > 2 µM | 0.98 | > 10 µM | 0.978 | > 1 µM | 0.768 | 1.38 µM | 0.838 | > 0.128 µM | 0.823 | 0.012 µM | – | – | 0.938 | > 10 µM | – | – | 0.892 | > 2.56 µM
SJRH30 (rhabdomyosarcoma, adherent) | 0.876 | > 20 µM | – | – | 0.973 | > 2 µM | 0.959 | > 10 µM | 0.985 | > 1 µM | 0.716 | 0.67 µM | 0.891 | > 0.128 µM | 0.655 | 0.00213 µM | 0.456 | 0.943 µM | 0.858 | 8.7 µM | 0.035 | < 0.02 µM | 0.688 | 0.549 µM
SK-MG-1 (glioma, adherent) | 0.697 | 4.49 µM | – | – | 0.964 | > 2 µM | 0.978 | > 10 µM | 0.966 | > 1 µM | – | – | 0.919 | > 0.128 µM | 0.653 | 0.00209 µM | 0.459 | 0.965 µM | 0.855 | 8.13 µM | 0.027 | < 0.02 µM | – | –
SNG-M (endometrium, adherent) | – | – | 0.969 | > 1.02 µM | 0.986 | > 2 µM | 0.977 | > 10 µM | 0.97 | > 1 µM | 0.758 | 0.869 µM | 0.516 | 0.00882 µM | 0.619 | 0.00165 µM | – | – | 0.899 | > 10 µM | – | – | 0.972 | > 2.56 µM
SNU-61 (large intestine, adherent) | 0.767 | 9.85 µM | – | – | 0.976 | > 2 µM | 0.98 | > 10 µM | 0.958 | > 1 µM | – | – | 0.95 | > 0.128 µM | 0.968 | > 0.0125 µM | 0.29 | 0.261 µM | 0.97 | > 10 µM | 0.056 | < 0.02 µM | – | –
SNU-81 (large intestine, adherent) | 0.912 | > 20 µM | – | – | 0.982 | > 2 µM | 0.982 | > 10 µM | 0.98 | > 1 µM | – | – | 0.827 | 0.118 µM | 0.873 | > 0.0125 µM | 0.977 | > 20 µM | 0.928 | > 10 µM | 0.744 | 2.08 µM | – | –
SNU-407 (large intestine, adherent) | 0.971 | > 20 µM | – | – | 0.978 | > 2 µM | 0.96 | > 10 µM | 0.978 | > 1 µM | – | – | 0.812 | 0.083 µM | 0.806 | 0.00771 µM | 0.452 | 0.904 µM | 0.954 | > 10 µM | 0.539 | 0.416 µM | – | –
SNU-C5 (large intestine, adherent) | 0.873 | > 20 µM | – | – | 0.98 | > 2 µM | 0.986 | > 10 µM | 0.984 | > 1 µM | – | – | 0.967 | > 0.128 µM | 0.7 | 0.00304 µM | 0.494 | 1.2 µM | 0.964 | > 10 µM | 0.051 | < 0.02 µM | – | –
STS-0421 (soft tissue, adherent) | – | – | 0.975 | > 1.02 µM | 0.983 | > 2 µM | 0.908 | > 10 µM | 0.977 | > 1 µM | 0.769 | 1.13 µM | 0.623 | 0.0185 µM | 0.726 | 0.00386 µM | – | – | 0.821 | 7.1 µM | – | – | 0.909 | > 2.56 µM
TE-4 (oesophagus, adherent) | 0.987 | > 20 µM | – | – | 0.971 | > 2 µM | 0.983 | > 10 µM | 0.982 | > 1 µM | – | – | 0.965 | > 0.128 µM | 0.586 | 0.00134 µM | 0.413 | 0.723 µM | 0.887 | > 10 µM | 0.28 | 0.0762 µM | – | –
UWB1.289 (ovary, adherent) | 0.917 | > 20 µM | – | – | 0.967 | > 2 µM | 0.963 | > 10 µM | 0.973 | > 1 µM | – | – | 0.916 | > 0.128 µM | 0.866 | > 0.0125 µM | 0.493 | 1.19 µM | 0.918 | > 10 µM | 0.209 | 0.0275 µM | – | –
